# Measurements reported in the supplement of paper PMC8728848.
# Some of the results follow.
# B1: BC2L-D C-terminal domain (Burkholderia cenocepacia), Q39MQ9_BURS3 (protein)
# chain: LVIVDAVTLLSAYPEASRDPAAPTVIDGRHLYVVSPGDAAQLGHNDSRLFTGLSPGDQLHLRETALALRAEVSVLFIRFALKDAGIVAPIELEVRDAATAVPDADDLLHPSCRPLKDHYWRSDVLAAGATTCTADFAVCDRDGTVSGYFRWETSIEIAGSQPDTKQPGFKPSSDRNGNFSLPPNTAFKAIFYANAADRQDLKLFIDDAPEPAATFVGNSEDGVRLFTLNSKGGKIRIEASANGRQSATDARLAPLSAGDTVWLGWLGAEDGADADYNDGIVILQWPIT
# Legend:
# Assay in all cases: glycan array binding signal (z-score within array); higher = stronger binding
# Conditions in all cases: glycan notation: IUPAC condensed, linker removed
# GlcNAc3Prop(b1-4)GlcNAc = biological target: GlcNAc3Prop(b1-4)GlcNAc
# How it was run: (§1)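 Glycan array binding is given as a within-array Z-score, which can be read as non-binding when negative. The arrays, 3228 of them, came from the Consortium for Functional Glycomics database and were retained only where the protein sequence was available. Z-scores were averaged across arrays of the same protein sequence at different concentrations or buffers and across linkers.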
# [1] = biological target: GlcNAc6S(b1-3)Gal(b1-4)GlcNAc
# How it was run: as §1
# Kdn(a2-3)Gal(b1-3)GalNAc = biological target: Kdn(a2-3)Gal(b1-3)GalNAc
# How it was run: as §1
# Kdn(a2-3)Gal(b1-3)GlcNAc = biological target: Kdn(a2-3)Gal(b1-3)GlcNAc
# How it was run: as §1
# Kdn(a2-3)Gal(b1-4)Glc = biological target: Kdn(a2-3)Gal(b1-4)Glc
# How it was run: as §1
# Kdn(a2-3)Gal(b1-4)GlcNAc = biological target: Kdn(a2-3)Gal(b1-4)GlcNAc
# How it was run: as §1
# [2] = biological target: Kdn(a2-3)Gal(b1-4)[Fuc(a1-3)]GlcNAc
# How it was run: as §1
# Kdn(a2-6)Gal(b1-4)GlcNAc = biological target: Kdn(a2-6)Gal(b1-4)GlcNAc
# How it was run: as §1
# [3] = biological target: Man(a1-2)Man(a1-2)Man(a1-3)Man
# How it was run: as §1
# [4] = biological target: Man(a1-2)Man(a1-2)Man(a1-6)[Man(a1-3)]Man
# How it was run: as §1
# Man(a1-2)Man(a1-3)Man = biological target: Man(a1-2)Man(a1-3)Man
# How it was run: as §1
# [5] = biological target: Man(a1-2)Man(a1-3)[Man(a1-2)Man(a1-6)]Man
# How it was run: as §1
# [6] = biological target: Man(a1-2)Man(a1-3)[Man(a1-2)Man(a1-6)]Man(a1-6)[Man(a1-2)Man(a1-2)Man(a1-3)]Man
# How it was run: as §1
# [7] = biological target: Man(a1-2)Man(a1-3)[Man(a1-2)Man(a1-6)]Man(a1-6)[Man(a1-2)Man(a1-2)Man(a1-3)]Man(b1-4)GlcNAc(b1-4)GlcNAc
# How it was run: as §1
# [8] = biological target: Man(a1-2)Man(a1-3)[Man(a1-6)]Man(a1-6)[Man(a1-2)Man(a1-3)]Man(b1-4)GlcNAc(b1-4)GlcNAc
# How it was run: as §1
# [9] = biological target: Man(a1-2)Man(a1-6)[Man(a1-3)]Man(a1-6)[Man(a1-2)Man(a1-2)Man(a1-3)]Man
# How it was run: as §1
# [10] = biological target: Man(a1-2)Man(a1-6)[Man(a1-3)]Man(a1-6)[Man(a1-2)Man(a1-2)Man(a1-3)]Man(b1-4)GlcNAc(b1-4)GlcNAc
# How it was run: as §1
# Man(a1-3)[Man(a1-6)]Man = biological target: Man(a1-3)[Man(a1-6)]Man
# How it was run: as §1
# [11] = biological target: Man(a1-3)[Man(a1-6)]Man(a1-6)[Man(a1-2)Man(a1-3)]Man(b1-4)GlcNAc(b1-4)GlcNAc
# How it was run: as §1
# [12] = biological target: Man(a1-3)[Man(a1-6)]Man(a1-6)[Man(a1-3)]Man
# How it was run: as §1
# [13] = biological target: Man(a1-3)[Man(a1-6)]Man(a1-6)[Man(a1-3)]Man(b1-4)GlcNAc(b1-4)GlcNAc
# How it was run: as §1
# [14] = biological target: Man(a1-3)[Man(a1-6)]Man(b1-4)GlcNAc(b1-4)GlcNAc
# How it was run: as §1
# Man(a1-6)Man = biological target: Man(a1-6)Man
# How it was run: as §1
# Man(b1-4)GlcNAc = biological target: Man(b1-4)GlcNAc
# How it was run: as §1
# Neu5Ac(a2-3)Gal = biological target: Neu5Ac(a2-3)Gal
# How it was run: as §1
# [15] = biological target: Neu5Ac(a2-3)Gal(b1-3)GalNAc
# How it was run: as §1
# [16] = biological target: Neu5Ac(a2-3)Gal(b1-3)GalNAc(b1-3)Gal(a1-4)Gal(b1-4)Glc
# How it was run: as §1
# [17] = biological target: Neu5Ac(a2-3)Gal(b1-3)GalNAc(b1-3)Gal(b1-4)GlcNAc
# How it was run: as §1
# [18] = biological target: Neu5Ac(a2-3)Gal(b1-3)GalNAc(b1-4)[Neu5Ac(a2-3)]Gal(b1-4)Glc
# How it was run: as §1
# [19] = biological target: Neu5Ac(a2-3)Gal(b1-3)GalNAc(b1-4)[Neu5Ac(a2-8)Neu5Ac(a2-3)]Gal(b1-4)Glc
# How it was run: as §1
# [20] = biological target: Neu5Ac(a2-3)Gal(b1-3)GalNAc6S
# How it was run: as §1
# [21] = biological target: Neu5Ac(a2-3)Gal(b1-3)GlcNAc
# How it was run: as §1
# [22] = biological target: Neu5Ac(a2-3)Gal(b1-3)GlcNAc(b1-3)Gal(b1-3)GlcNAc
# How it was run: as §1
# [23] = biological target: Neu5Ac(a2-3)Gal(b1-3)GlcNAc(b1-3)Gal(b1-4)GlcNAc
# How it was run: as §1
# [24] = biological target: Neu5Ac(a2-3)Gal(b1-3)GlcNAc(b1-3)GalNAc
# How it was run: as §1
# [25] = biological target: Neu5Ac(a2-3)Gal(b1-3)GlcNAc6S
# How it was run: as §1
# [26] = biological target: Neu5Ac(a2-3)Gal(b1-3)[Fuc(a1-4)]GlcNAc
# How it was run: as §1
# [27] = biological target: Neu5Ac(a2-3)Gal(b1-3)[Fuc(a1-4)]GlcNAc(b1-3)Gal(b1-3)[Fuc(a1-4)]GlcNAc
# How it was run: as §1
binder,measurement,setting,value
B1,glycan array binding signal (z-score),GlcNAc3Prop(b1-4)GlcNAc,-0.238
same,glycan array binding signal (z-score),[1],-0.241
same,glycan array binding signal (z-score),Kdn(a2-3)Gal(b1-3)GalNAc,-0.233
same,glycan array binding signal (z-score),Kdn(a2-3)Gal(b1-3)GlcNAc,-0.242
same,glycan array binding signal (z-score),Kdn(a2-3)Gal(b1-4)Glc,-0.246
same,glycan array binding signal (z-score),Kdn(a2-3)Gal(b1-4)GlcNAc,-0.244
same,glycan array binding signal (z-score),[2],-0.246
same,glycan array binding signal (z-score),Kdn(a2-6)Gal(b1-4)GlcNAc,-0.244
same,glycan array binding signal (z-score),[3],1.67
same,glycan array binding signal (z-score),[4],5.14
same,glycan array binding signal (z-score),Man(a1-2)Man(a1-3)Man,0.519
same,glycan array binding signal (z-score),[5],1.2
same,glycan array binding signal (z-score),[6],4.23
same,glycan array binding signal (z-score),[7],1.52
same,glycan array binding signal (z-score),[8],2.66
same,glycan array binding signal (z-score),[9],5.62
same,glycan array binding signal (z-score),[10],6.24
same,glycan array binding signal (z-score),Man(a1-3)[Man(a1-6)]Man,4.31
same,glycan array binding signal (z-score),[11],6.86
same,glycan array binding signal (z-score),[12],5.02
same,glycan array binding signal (z-score),[13],3.67
same,glycan array binding signal (z-score),[14],3.32
same,glycan array binding signal (z-score),Man(a1-6)Man,-0.061
same,glycan array binding signal (z-score),Man(b1-4)GlcNAc,-0.244
same,glycan array binding signal (z-score),Neu5Ac(a2-3)Gal,-0.245
same,glycan array binding signal (z-score),[15],-0.242
same,glycan array binding signal (z-score),[16],-0.239
same,glycan array binding signal (z-score),[17],-0.297
same,glycan array binding signal (z-score),[18],-0.239
same,glycan array binding signal (z-score),[19],-0.154
same,glycan array binding signal (z-score),[20],-0.248
same,glycan array binding signal (z-score),[21],-0.243
same,glycan array binding signal (z-score),[22],-0.233
same,glycan array binding signal (z-score),[23],-0.164
same,glycan array binding signal (z-score),[24],-0.161
same,glycan array binding signal (z-score),[25],-0.243
same,glycan array binding signal (z-score),[26],0.051
same,glycan array binding signal (z-score),[27],0.899
